# Experimental data from PubChem BioAssay AID1347071 (National Center for Advancing Translational Sciences (NCATS), 2019).
# Among all 410,000 compounds or so, about 260 (0.063%) were called active. The shares of active, inactive and inconclusive entries below differ from those in the screen. The call rests on the fitted dose curve; in most records, active means well fitted activation curve with a large enough effect; inconclusive means small, poorly fitted or top-dose-only effect; inactive means no such curve, though single readings can be large or run the other way. Potencies of inconclusive entries are left out as doubtful fits.
# Assay: qHTS for compounds that reverse cellular toxicity of Amyloid beta (A-beta) peptide in yeast: Primary Screen; further: nearly all actives have a fitted effect of over 55% in size
# Details: yeast expressing A-beta42, growth rescue, OD600, 48 h; growth rescue: at 46.1 µM (top of the series), 0% DMSO, 100% iron-clioquinol control
# Text: The A-beta peptide is produced by the processing of the amyloid precursor protein (APP) by two proteases, beta and gamma secretases. […] A-beta42 is regarded as the most amyloidogenic form due to its hydrophobicity; however, precisely how A-beta42 induces neurotoxicity is unclear. To understand further this biology and its potential therapeutic implications for human neurodegenerative disease, a quantitative high-throughput screen for compounds that reverse the cellular toxicity of the A-beta peptide was developed. A yeast based screen was used because it recapitulates the salient feature of protein mis-folding disorder accurately. This cell-based phenotypic screen provides a significant, unbiased advantage by letting the compounds and models inform us which proteins or pathways are most relevant. The ideal chemical candidates would therefore have activity in both our primary yeast and secondary neuronal toxicity assays, as well as in mouse models. They will be valuable tools for dissecting diverse protein homeostasis pathologies and could potentially become the focus for future pre-clinical development. For this luminescence assay, inhibition of A-beta rescues the toxic effect in the yeast cell, resulting in increase of signals and the desired phenotype of "Activator". This screen is run against the Molecular Libraries Small Molecule Repository (MLSMR) and the NCGC Sytravon Library Collection.
# NIH Chemical Genomics Center [NCGC]
# NIH Molecular Libraries Probe Centers Network [MLPCN]
# Assay Submitter (PI): Susan Lindquist, Whitehead Institute, Massachusetts Institute of Technology
# [1] Vassar R,et al (1999). Beta-secretase cleavage of Alzheimer's amyloid precursor protein by the transmembrane aspartic protease BACE. Science. 286: 735-741.
# [2] Yan R, et al (1999). Membrane-anchored aspartyl protease with Alzheimer's disease beta-secretase activity. Nature. 402: 533-536.
# Two and a half microliter / well of yeast growth medium were dispensed in a 1536 assay plate. Compounds were pinned using the Kalypsys robotic system followed by addition of 2.5 uL / well yeast solution. The assay plates were incubated at 30 C. After 48 hr, the absorbance signal at 600 nm was obtained using the PerkinElmer ViewLux plate reader to assess yeast growth. The data was normalized to the positive control of an equimolar mixture of ferric chloride (FeCl3) and clioquinol and to the negative control DMSO.
# Potency means the concentration at half of the fitted maximal effect; tags describe the fitted curve by direction and shape.
row,Structure (SMILES),Potency
1,CCc1cccc(NC(=S)N2CCC(c3ccccc3)C2)c1 (stereo not drawn),"inconclusive [activator, single point]"
2,CN(CC(=O)Nc1cccc(Cl)c1)S(=O)(=O)/C=C/c1ccccc1,inactive
3,OCCN(Cc1ccccc1)Cc1ccccc1O,"inconclusive [activator, partial curve, poor fit]"
4,CCN(CC)C(=O)c1sc2c(c1C)c(=O)n(-c1ccccc1)c(=O)n2Cc1c(C)cc(C)cc1C,inactive
5,COc1ccc(-c2cn3nc(N4CCC(C(=O)Nc5ccccc5OC)CC4)sc3n2)cc1,inactive
6,COc1ccccc1N1CCN(C(=S)Nc2ccc(F)cc2)CC1,"inconclusive [activator, single point]"
7,O=C(NC(=S)N1CCCC1)c1cccc([N+](=O)[O-])c1,"inconclusive [activator, partial curve, poor fit]"
8,CCOc1ccc(NC2SC(=O)N(Cc3ccccc3)C2=O)cc1 (stereo not drawn),"inconclusive [activator, single point]"
9,Cc1cccc(CC(=O)Nc2c3c(nn2-c2cccc(Cl)c2)CS(=O)C3)c1 (stereo not drawn),"inconclusive [activator, partial curve, poor fit]"
10,Cc1ccccc1CCNC(=O)c1cc(C2CC2)nc2c1cnn2C(C)C,inactive
11,CC1CC(C)CN(S(=O)(=O)c2ccc(NC(=O)C3COc4ccccc4O3)cc2)C1 (stereo not drawn),"inconclusive [activator, partial curve]"
12,CNc1nc(Cl)c(SC)c(NCc2ccc(F)cc2)n1,"inconclusive [activator, partial curve]"
13,COc1cccc(C(NC(C)=O)c2ccc3cccnc3c2O)c1 (stereo not drawn),"inconclusive [activator, single point]"
14,COc1ccc(CCNC(=S)Nc2ccccc2)cc1,"inconclusive [activator, single point]"
15,Cc1onc(-c2c(F)cccc2Cl)c1C(=O)c1ccccc1,"inconclusive [activator, full curve, poor fit]"
16,Cc1ccc(C(=O)NCc2ccccn2)o1,"inconclusive [activator, partial curve]"
17,O=C(Cc1ccc(S(=O)(=O)N2CCOCC2)s1)NCCOc1ccccc1,inactive
18,O=S(=O)(NCCc1csc2nc(-c3ccccc3)nn12)c1cccs1,inactive
19,CC(C)C[C@@H](CN1CCCC1CN1C(=S)NC[C@@H]1Cc1ccccc1)N1C[C@H](Cc2ccccc2)N(CC2CCCCCC2)C1=S (stereo partly drawn),"inconclusive [activator, single point]"
20,CCOc1ccccc1NC(=S)NCCc1ccc(F)cc1,"inconclusive [activator, partial curve, poor fit]"
21,COc1cccc(NC(=O)COC(=O)COc2ccccc2[N+](=O)[O-])c1,"inconclusive [activator, full curve, poor fit]"
22,Cc1cccc(NC(=O)N(Cc2nc3ccccc3c(=O)[nH]2)C2CCCC2)c1,"inconclusive [activator, single point]"

row,Structure (SMILES),Potency
1,CCOC(=O)C1=C(C)N(C)C(=S)NC1c1cccc(Cl)c1Cl (stereo not drawn),"inconclusive [activator, single point]"
2,Cc1cc(S(=O)(=O)N2CCC3(CC2)OCCO3)c(C)cc1Cl,"inconclusive [activator, partial curve]"
3,O=C(O)CC(c1ccc(OC2CCCC2)cc1)N1C(=O)c2ccccc2C1=O (stereo not drawn),"inconclusive [activator, partial curve]"
4,COc1cccc(N2CC(NC(=O)COc3ccc4ccccc4c3)CC2=O)c1 (stereo not drawn),"inconclusive [activator, single point]"
5,Cc1ccc(C(=O)c2oc3ccccc3c2NC(=O)Cc2coc3c(C)c(C)ccc23)cc1,inactive
6,CC(C)C[C@H]1CN([C@@H](Cc2ccccc2)CN2CCCC2CN2C(=S)NC[C@@H]2Cc2ccccc2)C(=S)N1CC1CCCCC1 (stereo partly drawn),"inconclusive [activator, partial curve, poor fit]"
7,FC(F)(F)c1ccc(Oc2ccc3ccccc3c2Br)nc1,"inconclusive [activator, partial curve, poor fit]"
8,CC(C)(C)N(Cc1ccccc1)C(=O)COC(=O)C1CC1,"inconclusive [activator, partial curve]"
9,Cc1ccccc1CC(=O)Nc1cc(C(C)(C)C)on1,"inconclusive [activator, single point]"
10,COc1cccc(NS(=O)(=O)c2ccc3[nH]cc(C(=O)N(C)C4CCCCC4)c(=O)c3c2)c1,inactive
11,CCOC(=O)NCc1ccc(Cl)c(Cl)c1,inactive
12,Cc1cc(Br)ccc1NC(=O)CN(C)C(=O)CSCc1ccccc1,"inconclusive [activator, single point]"
13,COc1cccc(/C=N/Nc2nc(Nc3ccccc3)nc(-n3nc(C)cc3C)n2)c1O,"inconclusive [activator, partial curve, poor fit]"
14,Cc1cccc(NC(=S)NC(=O)/C=C/c2ccco2)c1,"inconclusive [activator, partial curve]"
15,CCc1ccc(NC(=O)CC2C(=O)N(c3ccccc3)C(=O)N2C(C)C)cc1 (stereo not drawn),inactive
16,COc1ccc(C2=NN3C(C2)c2ccccc2OC32C(=O)N(C)c3ccccc32)cc1 (stereo not drawn),inactive
17,COc1ccc(CN2C(=O)C(NC(=O)c3ccccc3C)(C(F)(F)F)N=C2c2ccccc2)cc1 (stereo not drawn),inactive
18,Cc1ccc(C)c(NC(=O)CN(C)C(=O)c2ccc(-c3ccc(Cl)cc3)o2)c1,inactive
19,Cc1nn(-c2ccccc2)c(C)c1NC(=O)COC(=O)c1cc([N+](=O)[O-])ccc1NCCO,"inconclusive [activator, single point]"
20,Cc1cccc(N2CCN(C(=O)c3oc(=O)c4ccccc4c3-c3ccccc3)CC2C)c1 (stereo not drawn),inactive
21,CC(=O)C1=C(C)NC2=C(C(=O)c3ccccc32)C1c1ccccc1 (stereo not drawn),"inconclusive [activator, partial curve, poor fit]"
